According to PMC4336329 (PLoS ONE, 2015):
The whole screen tested about 310,000 compounds, of which about 2,200 (0.71%) showed an effect of 50% or more. Effects have a minus sign here. The list shows a part of the results. Where a SMILES comes first, the peptide text is derived from it. The star is where a group is joined. Boc = CC(C)(C)OC(=O)*; Bn = c1ccc(C*)cc1

Biological target: human ether-à-go-go-related gene (hERG) potassium channel (human, UniProt Q12809)
Experiment: primary screen, population patch clamp on CHO cells stably expressing hERG

Sequence of human ether-à-go-go-related gene (hERG) potassium channel (Q12809 whole entry, looked up): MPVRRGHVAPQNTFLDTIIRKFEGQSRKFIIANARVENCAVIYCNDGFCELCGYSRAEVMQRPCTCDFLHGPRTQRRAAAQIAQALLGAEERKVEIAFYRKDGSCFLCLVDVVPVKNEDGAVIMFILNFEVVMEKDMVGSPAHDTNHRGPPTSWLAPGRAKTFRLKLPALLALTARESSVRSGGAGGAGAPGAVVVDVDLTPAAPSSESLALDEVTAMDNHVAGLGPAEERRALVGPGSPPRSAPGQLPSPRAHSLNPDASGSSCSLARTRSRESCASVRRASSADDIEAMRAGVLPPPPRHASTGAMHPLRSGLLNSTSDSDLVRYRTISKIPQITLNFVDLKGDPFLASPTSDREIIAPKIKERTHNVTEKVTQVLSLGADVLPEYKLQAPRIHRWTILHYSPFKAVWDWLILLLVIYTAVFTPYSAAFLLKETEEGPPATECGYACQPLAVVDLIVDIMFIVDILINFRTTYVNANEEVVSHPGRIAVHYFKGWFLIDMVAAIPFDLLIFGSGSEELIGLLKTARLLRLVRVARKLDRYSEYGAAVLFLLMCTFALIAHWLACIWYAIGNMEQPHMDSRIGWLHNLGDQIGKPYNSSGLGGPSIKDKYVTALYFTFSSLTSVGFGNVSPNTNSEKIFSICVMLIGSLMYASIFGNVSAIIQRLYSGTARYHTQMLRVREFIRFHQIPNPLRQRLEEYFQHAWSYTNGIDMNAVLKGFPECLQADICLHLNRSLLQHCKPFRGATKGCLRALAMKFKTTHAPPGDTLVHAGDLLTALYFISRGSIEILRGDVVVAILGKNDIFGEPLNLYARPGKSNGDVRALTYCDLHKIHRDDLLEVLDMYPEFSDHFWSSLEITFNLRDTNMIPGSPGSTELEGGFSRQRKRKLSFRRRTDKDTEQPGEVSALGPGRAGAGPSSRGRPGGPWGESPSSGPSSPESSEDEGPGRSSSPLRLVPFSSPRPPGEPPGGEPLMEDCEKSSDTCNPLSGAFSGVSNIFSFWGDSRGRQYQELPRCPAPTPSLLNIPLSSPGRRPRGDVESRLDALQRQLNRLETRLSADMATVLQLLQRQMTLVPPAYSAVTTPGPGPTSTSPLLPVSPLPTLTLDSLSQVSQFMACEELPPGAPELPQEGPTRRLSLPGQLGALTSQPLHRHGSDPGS

SMILES | hERG current change (%, negative = inhibition) at 1uM [%]
COc1ccc(-c2noc(Cc3ccccc3OC)n2)cc1 | 21
CCCc1nnc(NC(=O)CCN2C(=O)c3ccccc3C2=O)s1 | 13.1
CCNS(=O)(=O)c1ccc(CCC(=O)N2CCc3ccccc3C2)cc1 | 3.99
N#CCN1CCN(CC(=O)c2ccc(Br)cc2)CC1 | 17.7
CCC(=O)NC(=S)Nc1ccccc1F | 16.1
CCc1ccc(OCCSc2nc3ccccc3n2CC(=O)O)cc1 | 7.3
Cc1cccc(C)c1N1CCN(c2nc(N(C)C)oc(=O)c2C#N)CC1 | -2.69
COc1cc(OC)cc(C(=O)NNC(=S)Nc2ccc(S(N)(=O)=O)cc2)c1 | 11.5
CCN(CC)CCNc1nc2nonc2nc1NCCN(CC)CC | 11.9
Cl.O=C(CN1CCCC1)NC1C2CC3CC(C2)CC1C3 (centres unmarked) | -7.88
CCOCC(=O)Nc1cc(C(=O)OC)cc(C(=O)OC)c1 | 10.2
COc1cccc(NC(=O)COc2ccc(C(=S)N3CCN(C)CC3)cc2OC)c1 | 6.94
CCOc1ccc(NC(N)=O)cc1OCC | 7.76
O=C(CCn1cnc2ccccc21)N=Nc1c(O)[nH]c2ccccc12 | 6.64
Cc1cc2c3c(c1C)C1(C(=O)N3C(C)(C)CC2C)C(C#N)=C(N)Oc2cc(O)ccc21 (centres unmarked) | 9.72
CC(C)CC(NC(=O)C(Cc1ccc(OCc2ccccc2)cc1)NC(=O)OC(C)(C)C)C(N)=O (centres unmarked) (Boc-Tyr(Bn)-Leu-NH2; configuration not given here) | 14.4
Cc1ccc(NC(=O)c2ccc3c(c2)CCN3S(C)(=O)=O)cc1C | 1.9
COC(=O)c1c(NC(=O)c2ccccc2)sc(C(=O)c2ccccc2)c1C | 1.18
Cc1nc(CC(=O)O)c(-c2ccccc2)s1 | 16.5
Cc1ccc(OCCN2CCN(CC(O)Cn3c4ccccc4c4ccccc43)CC2)cc1.O=C(O)C(=O)O (centres unmarked) | 12.2
CN(C(=O)c1cccc(C(F)(F)F)c1)C1CCCc2ccccc21 (centres unmarked) | 10.6
COc1ccccc1CC(=O)NCCCc1ccccc1 | 11.2

SMILES | hERG current change (%, negative = inhibition) at 1uM [%]
CN1C(=O)C(O)(CC(=O)c2ccccn2)c2cc(Br)ccc21 (centres unmarked) | 5.78
Cc1nnc2ccc(-c3ccc(NS(=O)(=O)c4ccccc4[N+](=O)[O-])cc3)nn12 | 9.77
Cc1cccc(C)c1-n1nnnc1C(C)(C)N1CCN(N=O)CC1 | 16.8
COc1ccc(-n2c(SCC(=O)Nc3ccccc3OC)nc(O)cc2=O)cc1 | 16.4
CCN(CC)C(=O)COc1ccc2c3c(c(=O)oc2c1C)CCCC3 | 13.1
CSCC[C@H](NC(=O)[C@@H]1Cc2ccccc2CN1)C(=O)Nc1ccc2c(c1)OCCO2 | -5.17
CCOC(=O)CN1C(=O)C(Sc2n[nH]c(-c3ccccc3)n2)CCc2ccccc21 (centres unmarked) | -4.36
C#CCOCCOCCOCCNc1nc(N2CCN(C(=O)[C@H]([C@@H](C)CC)n3cc(CCCC[NH3+])nn3)CC2)nc(N2CCN(C(=O)[C@H](CCCC[NH3+])n3cc(CCCC)nn3)CC2)n1.[Cl-] | 10.7
O=S(=O)(c1cnc[nH]1)N1CCN(c2ccccc2)CC1 | 13
O=C(OCc1ccccc1)/C(=C/c1ccccc1Cl)NC(=O)c1ccco1 | 5.64
Cc1onc(-c2ccccc2)c1CNC(=O)Nc1ccc(F)cc1F | 9.12
COc1ccc(C2(c3ccc(OC)cc3)NC(=O)N(Cn3nnc4ccccc4c3=O)C2=O)cc1 | -1.38
CC(=O)c1cccc(NC(=O)c2sc3nc4n(c(=O)c3c2C)CCCC4)c1 | 8.51
CCOC(=O)C1=C(N)OC2=C(C(=O)CC(C)(C)C2)C1c1cc(CSc2nnnn2C)cs1 (centres unmarked) | -14.2
COc1cccc2sc(N(CCN(C)C)C(=O)c3ccc4c(c3)CCCC4)nc12.Cl | 2.16
CN(c1ccc(OCC(=O)O)cc1)S(=O)(=O)c1ccc2ccccc2c1 | 14.1
COCCNC(=O)CSc1nc2cc3c(cc2c(=O)n1CCCC(=O)NCc1ccc(OC)cc1)OCO3 | 18.7
CN1C(=O)c2cccc(NCCCN3C(=O)c4ccccc4C3=O)c2C1=O | 12
CCOC(=O)CC1(C)OCC(C[N+]2(C)CCCCC2)O1.[I-] (centres unmarked) | 8.19
O=C(COC(=O)c1ccc(O)cc1)NCCC1=CCCCC1 | 7.77
CCn1cc(C(=O)O)c(=O)c2cc(F)c(N3CCN(S(=O)(=O)c4ccc(NC(=O)OC)cc4)CC3)cc21 | 14.4
O=C1NC(=O)C2(CCc3ccccc32)N1 (centres unmarked) | 10.8

SMILES | hERG current change (%, negative = inhibition) at 1uM [%]
C=C(C)c1cccc(C(C)(C)NC(=O)N2CCN(C)CC2)c1 | 13.3
COc1cccc(/C=C2/C(=O)NN(c3ccc(F)cc3)C2=O)c1 | 6.82
O=C(CSc1nc2ccccc2c(=O)n1CC1CCCO1)Nc1ccc(F)cc1 (centres unmarked) | 4.67
CN(C(=O)c1ccncc1)C1CCCCC1 | 18.7
CCN(CC)C(=O)c1sc(NC(=O)c2ccncc2)c(C(=O)OC)c1C | 9.94
COC(=O)c1sc2cc(=O)n(-c3cccc(C(F)(F)F)c3)nc2c1O | -5.78
CNC(=O)NNC(=O)c1csc(Cc2c(Cl)sc3ccc(Cl)cc23)n1 | 7.53
COC(=O)c1c(C)[nH]c(O)c1C=Nc1ccc(Oc2ccccc2)cc1 | 10.5
CNC(=O)c1c(NC(=O)CCS(=O)(=O)c2ccccc2)sc(C)c1C | 9.04
CCCCN1C(=O)c2ccc(C(=O)Nc3ccc(C)c(S(=O)(=O)N(C)C)c3)cc2C1=O | -3.31
Cc1ccc(S(=O)(=O)NCc2ccc(C(=O)N3CCN(c4ccc([N+](=O)[O-])cc4)CC3)cc2)cc1 | 2.06
CCc1noc(C)c1C(=O)NNC(=O)c1ccc(N(CC)CC)cc1 | 14.6
C/C(=N\NC(=O)c1nn(C)c(C)c1Br)c1ccc(NC(=O)c2ccccc2F)cc1 | 23.5
Fc1ccccc1C(c1nnnn1Cc1ccc2c(c1)OCO2)N1CCN(Cc2ccccc2)CC1 (centres unmarked) | -9.88
Cc1ccc2c(c1)=C/C(=C\c1c(O)[nH]c(=S)[nH]c1=O)C(=O)N=2 | 8.19
Cc1nonc1NC(=O)c1oc2ccccc2c1C | 10.4
C=CCc1cc(Cl)ccc1OCCNCCOC.O=C(O)C(=O)O | 1.7
O=C1CC(N2CCN(c3ccc(C(=O)c4ccc(F)cc4)cc3)CC2)C(=O)N1 (centres unmarked) | -10.5
CC(Sc1nnnn1C)C(=O)NC1CCCc2ccccc21 (centres unmarked) | 11.7
O=C(N/N=C/c1ccccn1)c1cc([N+](=O)[O-])cc([N+](=O)[O-])c1 | -3.52
Cc1cccc(C(C)C)c1NC(=O)c1ccc(COc2ccc3c(C)cc(=O)oc3c2)cc1 | 11.2
CCc1ccc(C2CC(=O)N3CN(c4ccccc4)CSC3=C2C#N)cc1 (centres unmarked) | 17.3

SMILES | hERG current change (%, negative = inhibition) at 1uM [%]
CCCn1c(SCC(=O)NC2CCCC2)nnc1C(C)C | 6.51
COCc1nc2ccccc2n1CCc1ccccc1 | -38
Cc1ccc(-n2c(=O)cc(N3CCC(C)CC3)[nH]c2=O)cc1 | 10.7
O=C(Cc1ccc(F)cc1)N(c1ccccc1)C1C=CS(=O)(=O)C1 (centres unmarked) | -3.81
Cc1cc(C)n(CC(=O)Nc2ccc(N3CCOCC3)c(Cl)c2)c(=O)c1C#N | 11.8
N#C/C(=C\c1ccc(O)c(O)c1)C(=O)NCCCc1ccccc1 | 14.7
COc1cc(C)c(S(=O)(=O)NOCc2ccc([N+](=O)[O-])cc2)c(C)c1C | 10.5
CC(c1ccco1)N(C(=O)COc1ccccc1[N+](=O)[O-])c1ccccn1 (centres unmarked) | 0.845
CCCOc1cccc(C2/C(=C(/O)c3ccc(F)cc3)C(=O)C(=O)N2CCN(C)C)c1 (centres unmarked) | 15.4
CCN(CC)CCN(C(=O)c1ccc2c(c1)OCCO2)c1nc2c(Cl)cccc2s1.Cl | -16.9
O=C(NNC(=O)c1cccs1)c1ccc(Br)o1 | 20.7
COCCN(CCOC)Cc1cc(=O)oc2cc3c(cc12)CCC3 | 7.06
S=c1[nH]cnc2scc(-c3ccc(Br)cc3)c12 | 0.229
Cc1cc(C)c(NC(=O)COc2nncc3ccccc23)c(C)c1 | 8.12
COc1ccc(CN2CCSCC2)c(OC)c1C | 11.6
O=C(CSc1ccc2c(c1)OCCO2)NCC1CCCO1 (centres unmarked) | 10.1
O=C(O)/C(=C\c1cccc(C(F)(F)F)c1)c1ccc(S(=O)(=O)N2CCCC2)s1 | 20.2
COc1cccc(CN2CCNC(=O)C2CC(=O)N(C)CCC2CCOCC2)c1 (centres unmarked) | 13.8
COc1ccc(CCNC(=O)Nc2ccccc2[N+](=O)[O-])cc1 | 8.1
Cc1ccc(N(C(=O)c2ccccn2)C2(C(=O)NC3CCCC3)CCCCC2)cc1 | 16.9
